The values that follow come from the antibiotic and cytotoxicity screens of Wong et al. (2023).

For one assay, the system named is HSkMC. As to the kind of experiment: cytotoxicity call (relative viability < 0.9). Conditions: 10 µM.
In another assay the test system is HepG2. Put plainly: cytotoxicity call (relative viability < 0.9). The settings on record: 10 µM.
Another assay relates to S. aureus RN4220. As to the kind of experiment: growth inhibition call (relative growth <= 0.2). The settings on record: 50 µM.

The list shows a part of the results.

Take `C[C@@H]1CCCCO[C@@H](CN(C)Cc2ccccc2)[C@H](C)CN([C@@H](C)CO)C(=O)c2cc(NC(=O)Nc3cccc4ccccc34)ccc2O1`: the cytotoxicity call in the assay on HSkMC and in the assay with HepG2 was “inactive” each time. Also, the growth inhibition call with S. aureus RN4220 was “inactive”.

For the compound `CO/N=[N+](\[O-])NC(C)C`, the cytotoxicity call in the assay on HSkMC and with HepG2 was “inactive” throughout. In addition, the growth inhibition call in the assay with S. aureus RN4220 is “inactive”.

As to `C[C@H](CO)N1C[C@H](C)[C@H](CN(C)S(=O)(=O)c2cn(C)cn2)Oc2c(NC(=O)C3CCOCC3)cccc2C1=O`, the cytotoxicity call with HSkMC and in the assay on HepG2 was “inactive” throughout. Besides, the growth inhibition call with S. aureus RN4220 was “inactive”.

On to `C[C@H](CO)N1C[C@H](C)[C@H](CN(C)S(=O)(=O)c2ccc(-n3cccn3)cc2)OCc2cn(nn2)CCCC1=O`, for which the cytotoxicity call with HSkMC and in the assay on HepG2 was “inactive” each time. Besides, in the assay with S. aureus RN4220, the growth inhibition call was “inactive”.

In the case of `COc1ccc2c(c1)OCc1c-2oc2cc(OC)ccc12`, the cytotoxicity call in the assay with HSkMC and in the assay on HepG2 was “inactive” in each case. The growth inhibition call in the assay on S. aureus RN4220 is “inactive”.

As to `COc1ccccc1C#Cc1ccc2c(c1)O[C@H](CN(C)C(C)=O)[C@H](C)CN([C@H](C)CO)S2(=O)=O`, the cytotoxicity call in the assay on HSkMC and in the assay with HepG2 was “inactive” in each case. Besides, the growth inhibition call in the assay with S. aureus RN4220 is “inactive”.

Turning to `COc1cc(C(=O)NC2CCCNC2)cc(OC)c1OC` (centres undefined), the cytotoxicity call with HSkMC and in the assay with HepG2 was “inactive” each time. Also, in the assay with S. aureus RN4220, the growth inhibition call was “inactive”.

`COc1ccc(NC(=O)N(C)C[C@H]2Oc3c(NC(=O)C4CC4)cccc3C(=O)N([C@H](C)CO)C[C@H]2C)cc1`: the cytotoxicity call in the assay on HSkMC and in the assay on HepG2 was “inactive” throughout. Further, in the assay on S. aureus RN4220, the growth inhibition call is “inactive”.

Consider `CCC(=O)Nc1ccc2c(c1)OC[C@@H](C)N(C(=O)CN1CCOCC1)C[C@H](C)[C@H](OC)CN(C)C2=O`, for which the cytotoxicity call in the assay with HSkMC and in the assay with HepG2 was “inactive” each time. For the same compound, the growth inhibition call with S. aureus RN4220 is “inactive”.

In the case of `C[C@H](CO)N1C[C@H](C)[C@H](CN(C)Cc2ccncc2)OCCCC[C@H](C)Oc2ccc(NC(=O)CCC(F)(F)F)cc2C1=O`, the cytotoxicity call with HSkMC and with HepG2 was “inactive” in each case. Moreover, the growth inhibition call in the assay on S. aureus RN4220 is “inactive”.

Take `C[C@@H]1CN([C@H](C)CO)C(=O)c2cc(Br)cnc2O[C@H]1CN(C)S(=O)(=O)c1ccc(F)cc1`: the cytotoxicity call in the assay with HSkMC and in the assay on HepG2 was “inactive” each time. In the assay with S. aureus RN4220, the growth inhibition call is “inactive”.

With `COc1ccc(NC(=O)Nc2ccc3c(c2)C(=O)N([C@@H](C)CO)C[C@H](C)[C@@H](CN(C)C(=O)Nc2ccc4c(c2)OCO4)OCCCC[C@H](C)O3)cc1`, the cytotoxicity call in the assay on HSkMC and in the assay on HepG2 was “inactive” each time. Moreover, in the assay with S. aureus RN4220, the growth inhibition call is “inactive”.

For `CC(C)NC(=O)N(C)C[C@H]1Oc2ccc(NC(=O)Cn3cnnn3)cc2CC(=O)N([C@@H](C)CO)C[C@H]1C`, the cytotoxicity call with HSkMC and in the assay on HepG2 was “inactive” throughout. In addition, the growth inhibition call in the assay with S. aureus RN4220 is “inactive”.

In the case of `C[C@@H]1CN([C@H](C)CO)C(=O)c2cc(NC(=O)Nc3cccc4ccccc34)ccc2O[C@@H](C)CCCCO[C@@H]1CN(C)C(=O)Cc1ccccc1`, the cytotoxicity call with HSkMC and with HepG2 was “inactive” each time. In addition, the growth inhibition call in the assay on S. aureus RN4220 is “inactive”.

On to `C[C@@H]1CN([C@H](C)CO)C(=O)c2cc(NS(=O)(=O)c3ccccc3)ccc2O[C@@H]1CN(C)C(=O)Nc1cccc2ccccc12`, for which the cytotoxicity call with HSkMC is “inactive”. Besides, the cytotoxicity call with HepG2 is “active”. Moreover, the growth inhibition call in the assay with S. aureus RN4220 is “inactive”.

Take `CS(=O)(=O)N1CCO[C@]2(COCCN(c3cncnc3)C2)C1`: the cytotoxicity call in the assay on HSkMC and in the assay on HepG2 was “inactive” each time. The growth inhibition call with S. aureus RN4220 is “inactive”.

In the case of `CC(=O)N[C@@H](CC(=O)O)C(=O)N[C@@H](CCC(=O)O)C(=O)O`, the cytotoxicity call with HSkMC and in the assay on HepG2 was “inactive” each time. Besides, in the assay on S. aureus RN4220, the growth inhibition call was “inactive”.

As to `O=C(C[C@H]1CC[C@H]2[C@@H](COC[C@@H](O)CN2S(=O)(=O)c2cccc(Cl)c2)O1)N1CCOCC1`, the cytotoxicity call in the assay with HSkMC and in the assay on HepG2 was “inactive” in each case. The growth inhibition call in the assay with S. aureus RN4220 was “inactive”.

Consider `C[C@@H]1CN([C@H](C)CO)C(=O)Cc2cc(NC(=O)C3CC3)ccc2O[C@H]1CN(C)S(=O)(=O)c1ccccc1`, for which the cytotoxicity call in the assay on HSkMC and in the assay with HepG2 was “inactive” in each case. In addition, the growth inhibition call in the assay on S. aureus RN4220 is “inactive”.

As for `CC(=O)N(C)C[C@@H]1Oc2ncc(C#C[C@@H](C)O)cc2C(=O)N([C@H](C)CO)C[C@@H]1C`, the cytotoxicity call in the assay on HSkMC and in the assay on HepG2 was “inactive” each time. In addition, the growth inhibition call in the assay on S. aureus RN4220 is “inactive”.

For the compound `O=C(C[C@H]1CC[C@@H]2[C@H](COC[C@@H](O)CN2C(=O)Nc2ccc(Cl)c(Cl)c2)O1)NCc1ccc(Cl)c(Cl)c1`, the cytotoxicity call in the assay with HSkMC and in the assay with HepG2 was “inactive” each time. The growth inhibition call in the assay with S. aureus RN4220 is “inactive”.

Turning to `O=C(C[C@@H]1C=C[C@H](NC(=O)CN2CCOCC2)[C@@H](CO)O1)NC1CCC1`, the cytotoxicity call with HSkMC and with HepG2 was “inactive” in each case. Also, the growth inhibition call in the assay on S. aureus RN4220 is “inactive”.

As to `C[C@H](CO)N1C[C@H](C)[C@H](CN(C)C(=O)Nc2ccc(F)cc2)Oc2c(NC(=O)c3cnccn3)cccc2C1=O`, the cytotoxicity call with HSkMC and with HepG2 was “inactive” throughout. Also, the growth inhibition call in the assay on S. aureus RN4220 is “inactive”.

Regarding `COc1ccc(S(=O)(=O)Nc2ccc3c(c2)C(=O)N([C@@H](C)CO)C[C@H](C)[C@H](CN(C)C(=O)Nc2c(C)noc2C)OCCCC[C@H](C)O3)cc1`, the cytotoxicity call with HSkMC and in the assay on HepG2 was “inactive” in each case. For the same compound, the growth inhibition call in the assay with S. aureus RN4220 was “inactive”.

As to `C[C@@H]1CN([C@@H](C)CO)C(=O)Cc2cc(NC(=O)C3CCCCC3)ccc2O[C@H]1CN(C)S(=O)(=O)c1cn(C)cn1`, the cytotoxicity call in the assay on HSkMC and in the assay with HepG2 was “inactive” each time. Further, the growth inhibition call in the assay with S. aureus RN4220 was “inactive”.

Turning to `C[C@@H]1CN([C@@H](C)CO)C(=O)c2cc(NC(=O)C3CC3)ccc2O[C@H]1CN(C)S(=O)(=O)c1ccccc1`, the cytotoxicity call in the assay with HSkMC and in the assay with HepG2 was “inactive” each time. Besides, the growth inhibition call with S. aureus RN4220 was “inactive”.

As for `CCc1nc2ccc(C(=O)N3CCN(C(=O)c4ccco4)CC3)cn2c1N(C=O)Cc1ccc(OC)cc1`, the cytotoxicity call in the assay on HSkMC (human skeletal muscle cells) and with HepG2 was “inactive” throughout. The growth inhibition call in the assay on S. aureus RN4220 was “inactive”.

Consider `CC(C)C1CCC(C(=O)NC(Cc2ccccc2)C(=O)O)CC1` (centres undefined), for which the cytotoxicity call with HSkMC and with HepG2 was “inactive” in each case. Besides, the growth inhibition call with S. aureus RN4220 is “inactive”.
